Test results from paper PMC12820563, “FoxP3 forms a head-to-head dimer in vivo and stabilizes its multimerization on adjacent microsatellites”.
The list shows a part of the results.

biological target: T1, MBP-FoxP1dN (Mus musculus, UniProt P58462 326-579); assay: PD-seq (MBP pull-down with sequencing); 20 mM Tris-HCl pH 7.5, 100 mM NaCl, 1.5 mM MgCl2, 0.4 uM protein, 0.1 uM dsDNA library, 30 min, room temperature, amylose pull-down; high values mean tight binding; conditions: protein: recombinant; tags: His6-MBP; chain copies: 2; dsDNA, one strand shown
T1 sequence: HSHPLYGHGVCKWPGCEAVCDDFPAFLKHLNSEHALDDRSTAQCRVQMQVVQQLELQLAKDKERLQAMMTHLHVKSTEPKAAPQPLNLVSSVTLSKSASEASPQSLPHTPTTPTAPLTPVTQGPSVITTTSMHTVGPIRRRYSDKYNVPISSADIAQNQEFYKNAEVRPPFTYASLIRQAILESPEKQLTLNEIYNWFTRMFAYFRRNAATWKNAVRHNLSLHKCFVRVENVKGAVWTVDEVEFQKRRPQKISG
How it was run: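 The N-terminus-lacking fragment of mouse FoxP3 or FoxP1 carried a His6-MBP tag and was expressed in E. coli. At 0.4 µM it was incubated with 0.1 µM Klenow-filled degenerate double-stranded DNA library for 30 min at room temperature in Tris pH 7.5 buffer with NaCl and MgCl2, and complexes were caught on amylose resin, washed three times, released with proteinase K, PCR-barcoded and Illumina-sequenced. Binding is reads-per-million enrichment of pull-down over input with replicates pooled.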

Sequence | binding signal
GATGATTGTTCTCCCAGCTGATGAATTGATATTCTCGAGTAAACAAATTTTCCTAATCTTTCTGTTCAAGCGCCATCTAC | 1.06 RPM ratio (pull-down/input)
GATGATTGTTCTCCCAGCTGATGAATTAGCATACTCGAGTAAACAAATTTTCCTAATCTTTCTGTTCAAGCGCCATCTAC | 1.02 RPM ratio (pull-down/input)
GATGATTGTTCTCCCAGCTGATGAATTCTAAGAGTCGAGTAAACAAATTTTCCTAATCTTTCTGTTCAAGCGCCATCTAC | 0.872 RPM ratio (pull-down/input)
GATGATTGTTCTCCCAGCTGATGAATTGTCGCGTTCGAGTAAACAAATTTTCCTAATCTTTCTGTTCAAGCGCCATCTAC | 1.09 RPM ratio (pull-down/input)
GATGATTGTTCTCCCAGCTGATGAATTCACTGAATCGAGTAAACAAATTTTCCTAATCTTTCTGTTCAAGCGCCATCTAC | 0.855 RPM ratio (pull-down/input)
GATGATTGTTCTCCCAGCTGATGAATTAATAGTATCGAGTAAACAAATTTTCCTAATCTTTCTGTTCAAGCGCCATCTAC | 1.07 RPM ratio (pull-down/input)
GATGATTGTTCTCCCAGCTGATGAATTCATGACTTCGAGTAAACAAATTTTCCTAATCTTTCTGTTCAAGCGCCATCTAC | 0.828 RPM ratio (pull-down/input)
GATGATTGTTCTCCCAGCTGATGAATTCGAGTGTTCGAGTAAACAAATTTTCCTAATCTTTCTGTTCAAGCGCCATCTAC | 0.892 RPM ratio (pull-down/input)
GATGATTGTTCTCCCAGCTGATGAATTCATGCGTTCGAGTAAACAAATTTTCCTAATCTTTCTGTTCAAGCGCCATCTAC | 1.02 RPM ratio (pull-down/input)
GATGATTGTTCTCCCAGCTGATGAATTGCTACCGTCGAGTAAACAAATTTTCCTAATCTTTCTGTTCAAGCGCCATCTAC | 1.07 RPM ratio (pull-down/input)
GATGATTGTTCTCCCAGCTGATGAATTAAGATCTTCGAGTAAACAAATTTTCCTAATCTTTCTGTTCAAGCGCCATCTAC | 0.868 RPM ratio (pull-down/input)
GATGATTGTTCTCCCAGCTGATGAATTTTTTCAATCGAGTAAACAAATTTTCCTAATCTTTCTGTTCAAGCGCCATCTAC | 1.03 RPM ratio (pull-down/input)
GATGATTGTTCTCCCAGCTGATGAATTGAAGATGTCGAGTAAACAAATTTTCCTAATCTTTCTGTTCAAGCGCCATCTAC | 0.941 RPM ratio (pull-down/input)
GATGATTGTTCTCCCAGCTGATGAATTGCGCAATTCGAGTAAACAAATTTTCCTAATCTTTCTGTTCAAGCGCCATCTAC | 1.29 RPM ratio (pull-down/input)
GATGATTGTTCTCCCAGCTGATGAATTTCAACTGTCGAGTAAACAAATTTTCCTAATCTTTCTGTTCAAGCGCCATCTAC | 0.785 RPM ratio (pull-down/input)
GATGATTGTTCTCCCAGCTGATGAATTATAAATTTCGAGTAAACAAATTTTCCTAATCTTTCTGTTCAAGCGCCATCTAC | 0.978 RPM ratio (pull-down/input)
GATGATTGTTCTCCCAGCTGATGAATTTATCTAGTCGAGTAAACAAATTTTCCTAATCTTTCTGTTCAAGCGCCATCTAC | 1.12 RPM ratio (pull-down/input)
GATGATTGTTCTCCCAGCTGATGAATTATCTACTTCGAGTAAACAAATTTTCCTAATCTTTCTGTTCAAGCGCCATCTAC | 1.05 RPM ratio (pull-down/input)
